According to PubChem BioAssay AID485344 (National Center for Advancing Translational Sciences (NCATS), 2010):
Screen size: about 340,000 compounds; about 6,900 (2%) were called active. No stated cut-off is given here; in the data, active means inhibition above about 30%; inactive means below that, where a call was filed. This is a selection; strong and weak results do not stand in their true shares. Where no call is shown, the source filed none.

Target: D(2) dopamine receptor (Homo sapiens) (UniProt P14416)
Sequence of UniProt P14416 (P14416 whole entry, looked up): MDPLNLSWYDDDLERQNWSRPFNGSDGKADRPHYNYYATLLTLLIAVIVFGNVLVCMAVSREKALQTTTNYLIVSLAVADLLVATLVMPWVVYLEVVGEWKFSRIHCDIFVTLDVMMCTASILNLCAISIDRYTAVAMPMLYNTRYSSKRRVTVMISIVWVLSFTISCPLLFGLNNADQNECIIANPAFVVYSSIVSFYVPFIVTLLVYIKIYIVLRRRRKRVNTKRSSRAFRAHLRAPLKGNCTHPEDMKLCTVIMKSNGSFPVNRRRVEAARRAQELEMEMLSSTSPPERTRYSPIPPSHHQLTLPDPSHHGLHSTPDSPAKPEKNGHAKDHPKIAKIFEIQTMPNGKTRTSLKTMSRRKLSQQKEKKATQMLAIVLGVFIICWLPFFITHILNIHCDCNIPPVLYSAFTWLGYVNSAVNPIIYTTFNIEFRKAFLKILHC
Assay: HTS Assay for Allosteric Antagonists of the Human D2 Dopamine Receptor: Primary Screen for Antagonists; further: 0% is about no effect
Conditions: HEK293 TREx D2 cells, calcium flux, dopamine EC80; at 10 µM; stronger effect = higher value
How it was run: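 Cells plated overnight at 30 C with tetracycline; no-wash calcium dye, 30–90 min RT; 10 s baseline; compound pinned; 180 s read; EC80 dopamine added; another 180 s read.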

SMILES | inhibition
COc1ccc(NC(=O)C(C)n2c(C)c3cnn(-c4ccccc4)c(=O)c3c2C)cc1Cl (stereo unspecified) | 2.86%
COc1ccc(-c2cc(C(=O)N3CCN(c4ccc(F)cc4)CC3)no2)cc1OC | -1.73%
COC(=O)c1ccccc1NC(=O)CCc1c(C)nc2c(c(C)nn2-c2ccccc2)c1C | -0.107%
COc1cccc(CNC(=O)CCCn2nc(C)n3c(cc4sccc43)c2=O)c1 | 1.26%
COc1ccc(C2CC(=O)c3c([nH]c(C(=O)OC4CCCCCC4)c3C)C2)cc1OC (stereo unspecified) | -1.01%
COc1ccc(-n2nnc(-c3nc(-c4ccccc4C)no3)c2N)cc1Cl | 1.83%
CC1CCCCN1Cc1c(O)ccc2c(=O)c(-c3ccccc3)coc12 (stereo unspecified) | 3.25%
Cc1ccc(CNC(=O)c2sc3nc(-c4ccc(F)cc4)ccc3c2N)cc1 | -12.3%
COc1cccc(CNS(=O)(=O)c2ccc(N3CCCCS3(=O)=O)cc2)c1 | 1.72%
CCOC(=O)C1=C(CN2CCCCC2)NC(=O)NC1c1ccc(C)cc1 (stereo unspecified) | -0.617%
CCOc1ccc(C(CC(=O)Nc2cc(C)c(Cl)cc2OC)N2Cc3ccccc3C2=O)cc1OC (stereo unspecified) | -3.9%
O=C(c1cccc(F)c1)N1CCC(c2c[nH]c3ccccc23)(c2c[nH]c3ccccc23)CC1 | -4.63%
COc1ccc(C(=O)Nc2nnc(S(=O)(=O)N3CCC(C)CC3)s2)cc1OC | -4.82%
O=C(NC1CCCC1)c1cc(-c2ccccc2)on1 | active: 37.6%
CCN(C(=O)C1CCCN(c2ncnc3onc(-c4ccc(F)cc4)c23)C1)c1ccccc1 (stereo unspecified) | 12.7%
O=C(NCC1CCCO1)c1c[nH]c2ccc(S(=O)(=O)Nc3ccc(F)cc3F)cc2c1=O (stereo unspecified) | 1.82%
CC(C)(C)c1ccc(-c2nc(S(=O)(=O)c3ccccc3)c(N3CCOCC3)o2)cc1 | 9.99%
CCOc1ccc(NC(=O)NCCn2nnc3cc(S(=O)(=O)N(C)C)ccc32)cc1 | -7.56%
CCc1cccc(NC(=O)Cn2c(=O)n(CCC(=O)NCC3CCCO3)c(=O)c3cc(OC)c(OC)cc32)c1 (stereo unspecified) | 8.04%
Cc1ccc(-c2nc3ncccc3o2)cc1NC(=O)c1ccccc1Br | -5.76%
Cc1ccc(CNC(=O)c2cc3c(s2)-c2ccc(Cl)cc2SC3)cc1 | 2.94%
CN(C)c1ccc(NC(=O)CN2CCN(CC(=O)Nc3ccc(Br)cc3)CC2)cc1 | 24.8%
Cc1ccc(CSC2=Nc3ccccc3C3=NC(CC(=O)NCc4cccs4)C(=O)N23)cc1 (stereo unspecified) | -10.3%
CCOc1ccc(NC(=O)Cn2c(=O)n(Cc3ccc(C(=O)NCc4ccc(C)cc4)cc3)c(=O)c3ccccc32)cc1 | -3.46%

SMILES | inhibition
COc1cccc(CNC(=O)CN2C(=O)COc3ccc(S(=O)(=O)N4CCCCCC4)cc32)c1 | 6.6%
Cc1nc2ccn(Cc3ccccc3)c(=O)c2cc1C(=O)NCc1ccccc1F | 6.04%
COc1ccc(NC(=O)Nc2cccc(-c3cn4cccnc4n3)c2)cc1 | -11.3%
Cc1cccc([N+](=O)[O-])c1NC(=O)COC(=O)c1nc2nccc(C)n2n1 | active: 52.4%
O=C(NCCc1ccc(Cl)cc1)c1ccc2c(c1)N(Cc1ccccc1F)C(=O)c1ccccc1S2(=O)=O | 14.7%
CC1CC(=O)N(CC(=O)Nc2ccc(F)cc2F)c2ccccc2S1 (stereo unspecified) | 4.73%
O=C(CCCn1ccc2cc(S(=O)(=O)N3CCCC3)ccc21)NCc1ccc(Cl)cc1 | 5.71%
CCc1ccc(C2CC(=O)NC(NC(=O)c3ccc(C(C)(C)C)cc3)=N2)cc1 (stereo unspecified) | -8.26%
Cc1c(-c2ccccc2)c(=O)oc2c(CN3CCCC3)c(O)ccc12 | -12.2%
CCOc1ccc(/C=C/c2nc(C#N)c(Nc3ccc(OCC)cc3)o2)cc1 | -2.64%
Cn1c(=O)[nH]c(=O)c2c1nc(NCCO)n2CC(O)COc1ccccc1 (stereo unspecified) | 17.2%
CCOc1ccc(CCNC(=O)C2CCC(CNS(=O)(=O)c3ccc(Cl)cc3)CC2)cc1OCC (stereo unspecified) | -4.56%
COc1cccc(-n2cc(C(=O)Nc3cc(C)c(Cl)cc3OC)c3ccccc3c2=O)c1 | 27.2%
CCOc1ccc(CNC(=O)C2CCN(c3nn4c(=O)cc(C)nc4s3)CC2)cc1 | -4.25%
CCOCCCNC(=O)c1cc2c(=O)[nH]c3ccccc3c2n1C | 1.46%
COc1ccc(N(C(=O)COc2ccccc2OC)S(=O)(=O)c2ccc(Cl)cc2)cc1 | 6.78%
Cc1noc(C)c1S(=O)(=O)N1CCCC(C(=O)Nc2ccc(C(C)C)cc2)C1 (stereo unspecified) | 5.47%
CCc1ccccc1NC(=O)Nc1cc(C(=O)NCc2ccc(OC)cc2)ccc1N1CCCC1 | 7.82%
O=C(c1ccccc1)n1nc(-c2ccco2)nc1NCc1ccccc1Cl | 4.33%
Cc1c(-c2ccc(Cl)cc2)c(=O)oc2c(CN3CCCC3)c(O)ccc12 | 7.6%
COc1ccc(N2CC(NC(=O)c3ccc(OC(C)C)cc3)CC2=O)cc1 (stereo unspecified) | 13.7%
OCCNCc1cc(Br)ccc1OCc1ccccc1Cl | active: 41.8%
COc1ccccc1CNC(=O)CN1C(=O)CCn2nc(-c3ccccc3)cc21 | 1.93%
COc1ccc(-c2nc3sc(CCNS(=O)(=O)c4ccc(F)c(C)c4)c(C)n3n2)cc1 | -28.4%

SMILES | inhibition
Cc1ccc(OCC(=O)Nc2ccc3nc(Nc4cccc(Cl)c4)cc(C)c3c2)cc1 | -10.4%
CCCNC(=O)Cn1nc(-c2ccc(C)c(C)c2)c2cnc3ccc(F)cc3c21 | 9.11%
Cc1ccc(C)c(CN2C(=O)CSc3ccc(C(=O)NCCc4ccc(Cl)cc4)cc32)c1 | 2.15%
Clc1ccc(CNc2cc(-c3ccccc3)nc3nncn23)cc1 | 24.1%
O=C(Nc1cccc(C(F)(F)F)c1)Nc1nnc(N2CCCCC2)s1 | 12.2%
COc1ccc(S(=O)(=O)Nc2cccc(-c3ccc(N4CCCC4)nn3)c2)cc1OC | 12.3%
N#Cc1c(Nc2cccc(F)c2)sc(C(=O)c2ccc(Cl)cc2)c1N | 9.33%
CCN(c1ccccc1)S(=O)(=O)c1ccc2[nH]cc(C(=O)NCc3ccc(C)cc3)c(=O)c2c1 | 5.02%
COc1ccc(/C=C/c2nc3ccccc3c(=O)n2-c2cccc(C(F)(F)F)c2)cc1 | 25.1%
CN(CC(=O)NCCN1CCN(c2ccccc2)CC1)S(=O)(=O)c1ccc2c(c1)CCC(=O)N2 | active: 74.6%
Cc1ccc(CN(C(=O)COc2ccc(Cl)cc2Cl)C2CCS(=O)(=O)C2)o1 (stereo unspecified) | 9.51%
Cc1[nH]c(=O)[nH]c(=O)c1S(=O)(=O)N1CCN(c2cccc(Cl)c2)CC1 | 1.41%
CCN(CC)c1ccc(NC(=O)c2cc3c(=O)n4cccc(C)c4nc3n2C)c(C)c1 | -25%
O=C(CSC1=Nc2ccccc2N=C(c2ccc(F)cc2)C1)NCc1ccc(Cl)cc1 | 9.5%
Cc1cc(S(=O)(=O)NCC(c2ccc(N(C)C)cc2)N2CCOCC2)ccc1F (stereo unspecified) | -3.18%
CC(=O)c1ccc(NC(=O)c2nc3ccccc3n(C)c2=O)cc1 | 11.6%
CCCCCNC(=O)CCn1c(=O)[nH]c2ccccc2c1=O | 1.51%
COc1ccc(CNC(=O)C(=O)NCC(c2ccco2)S(=O)(=O)c2ccc(C)cc2)cc1 (stereo unspecified) | -8.01%
CCc1ccccc1OCCSc1nnc(-c2cc(OC)c(OC)c(OC)c2)o1 | -1.17%
COc1cc2nc(Nc3ccc(F)cc3)nc(N)c2cc1OC | -21.7%
COC(=O)c1ccc(Cn2nnc3sc4c(c3c2=O)CCCC4)cc1 | -0.701%
CCOC(=O)c1cccc(NC(=O)C(Cc2ccccc2)NS(=O)(=O)c2cccc3nsnc23)c1 (stereo unspecified) | 1.88%
COc1ccc(NC(=O)CN(C)S(=O)(=O)c2cccc3nsnc23)cc1 | 4.86%
COc1ccc(Cl)cc1NC(=O)N1CCC(CN2CCCCCC2)CC1 | -1.69%

SMILES | inhibition
Cc1ccc(C)c(Nc2nc3nonc3nc2Nc2cccc(C)c2C)c1 | 23.7%
CC(C)(C)c1ccccc1OCCCCCNCCO | active: 50.4%
CCc1ccccc1NC(=O)C(C)n1nc(-c2ccc(C)c(C)c2)ccc1=O (stereo unspecified) | -0.424%
O=C(C1CCN(S(=O)(=O)Cc2ccccc2)CC1)N1CCN(c2ccccc2F)CC1 | -5.55%
COc1ccc(CNC(=O)CN2C(=O)CSc3ccc(S(=O)(=O)N4CCCC4)cc32)cc1 | 6.31%
CCCCNC(=O)CN1C(=O)COc2ccc(S(=O)(=O)N3CCCC3)cc21 | 4.61%
O=C(Nc1ccccc1OCc1cc(=O)n2ccccc2n1)c1ccccc1F | 3.02%
CSc1cccc(NC(=O)Cn2cnc(S(=O)(=O)N3CCCC3)c2)c1 | -8.04%
CC1=C(C(=O)OCC2CCCCC2)C(c2ccc(Cl)cc2Cl)CC(=O)N1 (stereo unspecified) | 10.7%
O=[N+]([O-])c1ccccc1OCC(O)CN1CCN(CC(O)COc2ccccc2[N+](=O)[O-])CC1 (stereo unspecified) | active: 92.4%
CCCn1c2ccccc2c2cnn(CC(=O)NCc3cc(OC)ccc3OC)c(=O)c21 | 5.11%
CC(NC(=O)c1ccc2nc(Cc3ccccc3)oc2c1)c1ccccc1 (stereo unspecified) | 12.9%
COc1ccc(-c2cc(C(F)(F)F)nc(SCCC(=O)Nc3cccc(O)c3)n2)cc1 | 6.88%
CCc1noc(-c2ccc(N(C)Cc3ccc(OC)cc3)c([N+](=O)[O-])c2)n1 | 17.3%
CCOc1ccc(CCNC(=O)c2sc3ncccc3c2-n2c(C)ccc2C)cc1 | -12.8%
Cc1cc(C(=O)N/N=C/c2cn[nH]c2-c2ccccc2)cs1 | active: 30.3%
CCc1ccc(Nc2cc(C(=O)NCCCN(C)c3ccccc3)c3ccccc3n2)cc1 | 3.55%
COc1ccc(OC)c(NC(=O)N2CCC(N3CCN(Cc4ccc(F)cc4)C(=O)C3=O)CC2)c1 | -2.14%
COc1ccc(NC(=O)Cn2cc(C(=O)C3CCCCC3)c3ccccc32)cc1 | -1.58%
Cc1c(Cl)cccc1NC(=O)C(=O)NCC(c1cccnc1)N1CCN(c2ccccc2)CC1 (stereo unspecified) | -8.77%
CCCN(C(=O)c1sc2nc3n(c(=O)c2c1C)CCCC3)c1ccccc1C | 8.52%
Cc1cccc(NC(=O)C2CCN(S(=O)(=O)c3ccc4c(c3)CCCC(=O)N4)CC2)c1 | -2.74%
CCCNC(=O)C1CCC(Cn2c(=O)c3sccc3n(CC(=O)Nc3ccccc3C)c2=O)CC1 (stereo unspecified) | 19%
O=C(O)CCc1ccc(-c2cccs2)n1CC(=O)Nc1ccccc1C(F)(F)F | 11%
